Article PMC11949107, “Polyunsaturated fatty acids and their endocannabinoid-related metabolites activity at human TRPV1 and TRPA1 ion channels expressed in HEK-293 cells” (PeerJ, 2025)
“And” between values parts separate entries of the source, which are not always exact repeats. Equal entries are not always repeated. This continues a long series; more values of the same kind are listed elsewhere.

Experiments:
Assay type in all cases: cell-based
human TRPV1 [1] = target: T1, human TRPV1 (Homo sapiens, UniProt Q8NER1); assay: Calcium 5 dye [Ca]i assay in HEK-293 Flp-In T-REx cells expressing TRPV1 (agonist response)
T1 construct: Life Technologies (cells); host or cells: Flp-In T-REx HEK-293
Protocol: (§1) The cells were incubated in a 5% CO2 humidified atmosphere at 37 °C. Upon reaching approximately 90% confluence in 75 cm^2 flasks, they were trypsinized and transferred to poly-D-lysine coated 96-well plates (Corning, Castle Hill, NSW, Australia) in L-15 medium supplemented with 1% FBS, 100 U penicillin and 100 µg streptomycin ml^−1 (1% P/S), and 15 mM glucose (80 µL volume per well). After an overnight incubation (maximum of 16 h) in humidified room air at 37 °C, TRPV1 and TRPA1 receptor expression was induced 4 h before experimentation by adding to each well 10 µL tetracycline solution to a final concentration of 1 µg ml^−1.
(§2) Intracellular calcium [Ca]i levels were assessed using the calcium 5 kit from Molecular Devices (# R8186, Sunnyvale, CA, USA) on a FlexStation 3 Microplate Reader (Molecular Devices, Sunnyvale, CA, USA). […] Probenecid (cat # 50027; Biotium) which helps to prevent expulsion of calcium indicator from the cells was added to a final concentration of 1.25 mM. 90 µL of the dye were loaded into each well of the plate and incubated for 1 h before reading in the FlexStation 3 at 37 °C. Fluorescence was recorded every 2 s (λ excitation = 485 nm, λ emission = 525 nm) for 5 min. After 1 min of baseline recording, 20 µL of the drug, dissolved in HBSS with 1% dimethyl sulfoxide (DMSO) (cat # D2650; Sigma-Aldrich, Melbourne, Australia) was added (final DMSO concentration was 0.1% in well).
(§3) The response to agonists was expressed as a percentage change from the average baseline measurement taken for 60s before adding drug. Changes in fluorescence resulting from the addition of solvent were subtracted before normalization to baseline. Concentration–response curves (CRC), Emax and EC50 values were determined using a three-parameter logistic equation (GraphPad Prism, San Diego, CA, USA). […] Potencies were expressed as pEC50, which is the negative log of EC50 in moles per litre (Molar). Where appropriate, unpaired Student’s t-test were used to compare the responses of individual compounds in different conditions, while a one-way ANOVA followed by Dunnett’s multiple comparisons test was used to assess potential differences in responses elicited by a range of compounds. P < 0.05 was considered statistically significant.

human TRPV1 [2] = target: T1, human TRPV1; assay: PMA (phorbol ester) potentiation of TRPV1 responses in HEK-293 TRPV1 cells; conditions: sheet Figure 5(C)
Protocol: as §2
We initially determined the effect of PMA, another phorbol ester that is a protein kinase C activator ([Jiang & Fleet, 2012]) on HEK-293 TRPV1 expressing cells.
(A) Response of HEK-293 TRPV1 expressing cells for PMA at various concentration. […] Drugs were added for the duration of the bar; (D) The effects of PUFAs after potentiation of TRPV1 by PMA. […] Changes in [Ca]i are expressed as percentage of the pre-drug baseline, with the response to PMA alone at 5 min subtracted. The black circles represent the response of PUFAs without PMA pretreatment while the pink circles represent the response of PUFAs after PMA potentiation.

human TRPA1 = target: T2, human TRPA1 (Homo sapiens, UniProt O75762); assay: Calcium 5 dye [Ca]i assay in HEK-293 Flp-In T-REx cells expressing TRPA1 (agonist response); conditions: sheet Figure 4, listed as CA
T2 construct: Life Technologies (cells); host or cells: Flp-In T-REx HEK-293
Protocol: as §1, §2, §3

T1 sequence (Q8NER1 whole entry): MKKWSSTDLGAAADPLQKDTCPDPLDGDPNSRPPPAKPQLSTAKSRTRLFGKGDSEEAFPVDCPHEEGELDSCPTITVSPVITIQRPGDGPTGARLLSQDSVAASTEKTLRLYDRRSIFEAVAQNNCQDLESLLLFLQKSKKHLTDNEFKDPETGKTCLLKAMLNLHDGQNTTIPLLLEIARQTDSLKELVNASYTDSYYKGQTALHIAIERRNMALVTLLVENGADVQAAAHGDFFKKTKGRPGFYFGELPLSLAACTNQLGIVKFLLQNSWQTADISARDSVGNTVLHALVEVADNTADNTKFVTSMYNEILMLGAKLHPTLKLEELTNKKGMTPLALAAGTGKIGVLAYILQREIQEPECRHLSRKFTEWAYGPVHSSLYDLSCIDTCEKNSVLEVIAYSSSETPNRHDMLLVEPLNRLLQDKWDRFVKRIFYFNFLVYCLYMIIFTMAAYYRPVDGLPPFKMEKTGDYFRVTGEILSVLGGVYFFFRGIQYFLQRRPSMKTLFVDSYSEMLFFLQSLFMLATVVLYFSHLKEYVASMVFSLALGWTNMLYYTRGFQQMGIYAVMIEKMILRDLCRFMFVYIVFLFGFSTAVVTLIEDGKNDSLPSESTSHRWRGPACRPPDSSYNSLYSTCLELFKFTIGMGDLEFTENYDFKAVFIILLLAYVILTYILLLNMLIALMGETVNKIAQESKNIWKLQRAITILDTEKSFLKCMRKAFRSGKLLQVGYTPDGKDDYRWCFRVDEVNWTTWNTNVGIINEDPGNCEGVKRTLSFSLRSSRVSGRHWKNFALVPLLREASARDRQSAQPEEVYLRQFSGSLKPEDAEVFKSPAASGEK
T2 sequence (O75762 whole entry): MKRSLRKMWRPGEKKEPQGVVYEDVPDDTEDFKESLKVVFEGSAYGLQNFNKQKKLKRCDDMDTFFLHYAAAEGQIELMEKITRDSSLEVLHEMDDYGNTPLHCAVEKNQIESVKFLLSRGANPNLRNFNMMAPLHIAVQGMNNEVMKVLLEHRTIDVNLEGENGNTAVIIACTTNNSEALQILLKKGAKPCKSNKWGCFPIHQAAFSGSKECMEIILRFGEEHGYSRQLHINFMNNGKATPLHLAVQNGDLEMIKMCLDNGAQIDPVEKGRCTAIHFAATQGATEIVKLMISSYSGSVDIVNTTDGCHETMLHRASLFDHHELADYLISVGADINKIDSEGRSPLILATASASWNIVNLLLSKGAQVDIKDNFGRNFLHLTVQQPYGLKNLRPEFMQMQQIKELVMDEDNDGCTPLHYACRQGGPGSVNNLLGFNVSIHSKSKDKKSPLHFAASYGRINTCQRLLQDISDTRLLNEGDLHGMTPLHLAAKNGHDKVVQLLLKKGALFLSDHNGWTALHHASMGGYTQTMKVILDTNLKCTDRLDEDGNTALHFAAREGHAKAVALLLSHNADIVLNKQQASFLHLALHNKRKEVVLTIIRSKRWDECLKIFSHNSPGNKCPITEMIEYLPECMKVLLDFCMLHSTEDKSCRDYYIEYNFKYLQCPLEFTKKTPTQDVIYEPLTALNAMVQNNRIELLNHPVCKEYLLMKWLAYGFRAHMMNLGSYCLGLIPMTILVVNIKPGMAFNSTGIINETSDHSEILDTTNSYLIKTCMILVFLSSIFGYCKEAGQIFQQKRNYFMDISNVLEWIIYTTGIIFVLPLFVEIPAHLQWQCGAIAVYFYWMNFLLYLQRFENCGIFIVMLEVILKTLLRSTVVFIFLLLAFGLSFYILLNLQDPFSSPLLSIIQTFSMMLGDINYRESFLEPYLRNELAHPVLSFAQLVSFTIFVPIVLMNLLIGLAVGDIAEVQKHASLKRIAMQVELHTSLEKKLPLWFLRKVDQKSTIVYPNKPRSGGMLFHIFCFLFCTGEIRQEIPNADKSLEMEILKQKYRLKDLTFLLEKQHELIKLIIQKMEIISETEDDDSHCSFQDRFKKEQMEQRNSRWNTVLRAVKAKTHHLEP

Row | Compound | Change in Ca5 fluorescence, individual experiments (CRC raw data) (human TRPV1 [1]; log concentration -6 (M)) | Change in Ca5 fluorescence, individual experiments (CRC raw data) (human TRPV1 [1]; log concentration -7 (M)) | Change in Ca5 fluorescence, individual experiments (CRC raw data) (human TRPV1 [1]; log concentration -7.52288 (M)) | Change in Ca5 fluorescence, individual experiments (CRC raw data) (human TRPV1 [1]; log concentration -8 (M)) | Change in Ca5 fluorescence, individual experiments (CRC raw data) (human TRPV1 [1]; log concentration -8.52288 (M)) | Change in Ca5 fluorescence, individual experiments (CRC raw data) (human TRPV1 [1]; log concentration -9 (M)) | [Ca]i response (change in fluorescence), individual replicates (human TRPV1 [2]; Capsaicin alone, concentration -7 (log)) | [Ca]i response (change in fluorescence), individual replicates (human TRPV1 [2]; Capsaicin alone, concentration -7.52288 (log)) | [Ca]i response (change in fluorescence), individual replicates (human TRPV1 [2]; Capsaicin post-PMA, concentration -6.52288 (log)) | [Ca]i response (change in fluorescence), individual replicates (human TRPV1 [2]; Capsaicin post-PMA, concentration -7 (log)) | [Ca]i response (change in fluorescence), individual replicates (human TRPV1 [2]; Capsaicin post-PMA, concentration -7.52288 (log)) | [Ca]i response (change in fluorescence), individual replicates (human TRPA1; concentration -3.52288 (log)) | [Ca]i response (change in fluorescence), individual replicates (human TRPA1; concentration -4 (log)) | [Ca]i response (change in fluorescence), individual replicates (human TRPA1; concentration -4.52288 (log)) | [Ca]i response (change in fluorescence), individual replicates (human TRPA1; concentration -6.52288 (log))
1 | COc1cc(CNC(=O)CCCC/C=C/C(C)C)ccc1O [Capsaicin] | 211.63 and 351.159 and 247.922 and 122.31 and 532.736 and 519.757 and 484.594 | 149.785 and 483.821 and 461.679 and 83.1921 and 507.895 and 494.502 and 415.635 | 159.197 and 418.759 and 158.659 and 83.1944 and 476.755 and 450.661 and 349.079 | 141.864 and 312.735 and 345.351 and 76.2098 and 368.076 and 267.016 and 319.246 | 127.399 and 12.2423 and 8.27 and 59.6746 and 9.776 and 29.1085 and 28.7976 | 65.3455 and 10.8255 and 10.1388 and 35.8436 | 537.437 and 458.607 and 326.132 and 548.068 and 557.729 and 564.127 and 584.567 and 101.61 and 533.123 and 540.05 and 540.902 | 378.009 and 497.618 and 498.208 and 264.188 and 524.034 and 489.52 and 526.489 and 517.673 | 474.005 | 458.372 and 374.744 and 486.799 and 539.234 and 405.184 and 500.54 and 449.452 and 421.453 and 234.945 | 414.324 and 425.309 and 371.472 |  |  |  | 
2 | O=C/C=C/c1ccccc1 [Cinnamaldehyde, reference compound] |  |  |  |  |  |  |  |  |  |  |  | 579.18 and 443.895 and 314.03 and 238.126 and 505.429 and 366.901 and 547.612 and 503.571 | 512.677 and 386.358 and 182.251 and 90.233 and 462.503 and 256.186 and 470.33 | 104.319 and 294.992 | 14.1967 and 1.152 and 7.195 and 7.239 and 0.1872 and 2.197 and 47.8813 and 6.537
